We go through one compound from paper PMC4792161, “A novel pyrazole derivative protects from ovariectomy-induced osteoporosis through the inhibition of NADPH oxidase” (Scientific Reports, 2016).

Counter-ions that a name gives are not always drawn.

The assay concerns BMMs. Conditions: M-CSF and RANKL.

Regarding `CCCc1c(-c2ccccc2)nn(-c2ccccn2)c1O` [Ewha-18278, 3-phenyl-1-(pyridin-2-yl)-4-propyl-1H-5-hydroxypyrazole HCl], the “expression levels of NFATc1 and Atp6v0d2” value is “decreased”.
